Assay results: paper PMC4336329 (PLoS ONE, 2015)
About 14,000 (4.5%) of roughly 310,000 compounds showed an effect of 50% or more. Effects have a minus sign here. Some of the results follow.

Each compound was assayed against human ether-à-go-go-related gene (hERG) potassium channel (human, UniProt Q12809) (assay: primary screen, population patch clamp on CHO cells stably expressing hERG).
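Also: peak tail current of the secondary pulse compared with the same well before compound.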

Sequence of human ether-à-go-go-related gene (hERG) potassium channel (Q12809 whole entry, looked up): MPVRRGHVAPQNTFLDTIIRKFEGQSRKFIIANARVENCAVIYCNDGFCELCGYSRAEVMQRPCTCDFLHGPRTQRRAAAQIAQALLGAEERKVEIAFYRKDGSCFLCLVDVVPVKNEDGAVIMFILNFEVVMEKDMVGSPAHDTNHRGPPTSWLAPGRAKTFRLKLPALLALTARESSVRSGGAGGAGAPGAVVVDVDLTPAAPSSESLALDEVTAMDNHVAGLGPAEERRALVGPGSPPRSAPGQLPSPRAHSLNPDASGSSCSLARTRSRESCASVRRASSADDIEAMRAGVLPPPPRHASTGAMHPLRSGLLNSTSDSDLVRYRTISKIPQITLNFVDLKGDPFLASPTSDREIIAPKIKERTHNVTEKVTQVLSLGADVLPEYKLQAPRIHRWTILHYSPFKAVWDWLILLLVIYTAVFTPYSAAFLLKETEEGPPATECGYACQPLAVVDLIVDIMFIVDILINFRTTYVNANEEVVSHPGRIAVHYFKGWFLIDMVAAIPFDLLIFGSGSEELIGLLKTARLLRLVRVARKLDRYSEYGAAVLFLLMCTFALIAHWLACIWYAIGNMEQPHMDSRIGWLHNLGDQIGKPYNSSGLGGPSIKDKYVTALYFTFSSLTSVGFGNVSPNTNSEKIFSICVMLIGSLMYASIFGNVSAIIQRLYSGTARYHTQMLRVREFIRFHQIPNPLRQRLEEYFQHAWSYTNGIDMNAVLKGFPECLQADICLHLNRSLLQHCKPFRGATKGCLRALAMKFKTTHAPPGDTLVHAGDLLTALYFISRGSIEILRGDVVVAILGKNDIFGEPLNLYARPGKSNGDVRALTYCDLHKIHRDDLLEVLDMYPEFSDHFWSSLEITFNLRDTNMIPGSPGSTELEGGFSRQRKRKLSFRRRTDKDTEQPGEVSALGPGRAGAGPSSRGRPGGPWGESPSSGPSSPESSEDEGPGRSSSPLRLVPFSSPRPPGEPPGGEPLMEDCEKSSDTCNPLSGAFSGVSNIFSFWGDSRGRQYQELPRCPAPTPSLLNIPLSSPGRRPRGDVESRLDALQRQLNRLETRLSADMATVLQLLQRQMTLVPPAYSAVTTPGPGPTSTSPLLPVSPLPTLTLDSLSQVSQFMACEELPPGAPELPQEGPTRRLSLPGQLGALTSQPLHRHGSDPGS

SMILES	hERG current change (%, negative = inhibition) at 10uM
CC(NC(=S)Nc1ccc(F)cc1)C(c1cccs1)N1CCOCC1 (stereo not shown)	-0.917%
Cc1cc(Br)cc(C)c1NC(=O)c1ccc(C#N)cc1F	-21.2%
Cc1ccc(/C=N/NC(=O)CSc2nc3ccccc3[nH]2)o1	-3.01%
Cc1cnc(C(=O)OCc2ccc(C#N)cc2)cn1	-12.5%
CCn1c(SCC(=O)NNC(=O)Cc2ccccc2)nnc1-c1ccccc1	-10.2%
COc1ccc(N2CCN(CC(O)COC(c3ccccc3)c3ccccc3)CC2)cc1 (stereo not shown)	-64.9%
O=C(O)CN1C(=O)/C(=C\c2cccc(OCc3ccc(Cl)cc3)c2)SC1=S	18.2%
O=c1c2ccccc2cnn1CCOc1ccccc1	5.4%
Cc1cccc(NC2=NCC(=O)N2Cc2cccs2)c1.Cl	7.58%
Cc1ccc(CS(=O)(=O)c2ncc(Cl)c(C(=O)Nc3ccc(OC(F)F)cc3)n2)cc1	5.68%
COc1cc(C(=O)NCC(=O)N/N=C/c2c(C)[nH]c3ccccc23)cc(OC)c1OC	15.7%
COc1ccc(Cl)cc1S(=O)(=O)N1CCC(C(=O)NC2CC2)CC1	-3.03%
COc1ccc(S(=O)(=O)N2CCC(NC(=O)c3ccccc3)CC2)cc1	17.8%
CC(=O)NC(CC(=O)O)c1ccc(F)cc1 (stereo not shown)	0.22%
C=C(C)CN(CC)C(=O)CC1C(=O)NCCN1C (stereo not shown)	14.5%
CC(=O)Nc1ccc(NC(=O)c2c([N+](=O)[O-])c(C(C)(C)C)nn2C)cc1	-5.95%
Cc1ccc(C)c(S(=O)(=O)NCc2ccc(C(=O)N3CCOCC3)cc2)c1	-9.34%
COc1ccc(/C=N/N2CCN(C3c4ccccc4-c4ccccc43)CC2)cc1O	7.09%
CN(CCc1ccccn1)Cc1ccc(Cl)cc1Cl	-64.3%
COC(=O)c1cccc(NC(=S)NCCC2=CCCCC2)c1	11.3%
CC(=O)c1ccc(NC(=O)COC(=O)c2c[nH]c3ccccc23)cc1	7.78%
C=CCNC(=O)COC(=O)c1ccccc1C(=O)N(C)C1CCCCC1	5.15%
O=C1C2C3CCCC3=C3CCCC3C2C(=O)N1c1ccccc1 (stereo not shown)	1.8%
COC(=O)c1ccc(C(=O)OC)c(NC(=O)CN2CCCCC2)c1	7.62%
CCc1nnc(NC(=O)CN2CCN(Cc3ccccc3Cl)CC2)s1	4.32%
